# Measured values: the supplement of paper PMC10115384
# B1: ADI-67994 (protein)
# chain 1: EVQLVESGGGLVQPGGSLRLSCAASGFTFRNYAMNWVRQAPGKGLEWVSVLSGGDGSTYYADSVKGRFTISRDNSKNTLYLQMNSLRAEDTAVYYCARDLGGYSYGLNFFYAMDVWGQGTTVTVSS
# chain 2: QSALTQPASVSGSPGQSITISCTGTSSDVGAFNYVSWYQQHPGKAPKLMIYDVNNRPSGVSNRFSGSKSGNAASLTISGLQAEDEADYYCSSYTSSSTFVLFGGGTKLTVL
# B2: ADI-67999 (protein)
# chain 1: QVQLVQSGAEVKKPGSSVKVPCKASGGTFSNYGISWVRQSPGQGPEWLGGILPILGTVNYAQKFQGRVTITADESRTTAYMELSSLRSEDTAVYYCARERGYSGYGASLYFDYWGQGTLVTVSS
# chain 2: QSVLTQPPSVSGAPGQRVTISCTGSNSNIGAGYDVHWYQRLPGTAPKLLIYGNNNRPSGVPDRFSGSKSDTSASLAITGLQAEDEADYYCQSYDSSLSGAVFGTGTKVTVL
# B3: ADI-67119 (protein)
# chain 1: EVQLVETGGGLIQPGESLRLSCAASGLTVSTNYMTWVRQAPGKGLEWVSIIYSGGSTFYADSVRGRFTISRDNSKNTLYLQMNSLRVEDTAVYFCARDSVRGGMDVWGQGTTVTVSS
# chain 2: SYELTQPLSVSVALGQTARITCGGDNVGDETVFWYHQKPGQAPVLVLYGDSNRPSGIPERFSGSKSGNTATLTITRAQAGDEADYYCQVWDTTSVIFGGGTKLTVL
# B4: ADI-67127 (protein)
# chain 1: EVQLVESGGGLVQPGGSLRLSCAASGFTFEDYAMHWVRQAPGKGLEWVSGISWNSGVIDYADSVKGRFIISRDNTKNSLYLHMNSLRPEDTALYYCAKDDYPSSWYEHHPQRWAFDIWGQGTMVTVSS
# chain 2: QSVLTQPPSVSAAPGQKVTISCSGSSSNIGNNYVSWYQQLPGTAPKLLIYDNNKRPSGIPDRFSGSKSGTSATLGITGLQTGDEADYYCGTWDSSLSVVFGGGTKLTVL
# B5: ADI-67128 (protein)
# chain 1: EVQLVESGGGLVQPGGSLRLSCAASGFTFSNYDMHWVRQGAGKGLEWVSLIGTDGDTYYPASVKGRFTISRENAKNSLYLQMNSLRAGDTAVYYCVRVNYDSSGYYHYFDYWGQGTLVTVSS
# chain 2: DIQMTQSPSSLSASVGDRVTITCRASQSISNYLNWYQQKPGKAPKLLIYAASSLQSGVPSRFSGSGSGTDFTLTISSLQPEDFATYYCQQTYNIPPITFGQGTRLEIK
# B6: ADI-67130 (protein)
# chain 1: QVQLVQSGAEVKKPGSSVKVSCKASGGTFSSYAISWVRQAPGQGLEWMGGIIPITGTTNFAEKFQGRVTITADESTSTAYMELSSLTSEDTAVYYCARDRGYSGYGASLYFDYWGQGTLVTVSS
# chain 2: QSVLTQPPSVSGAPVQELLTISCTGSNSNIGAGYDVHWYQQLPGTAPKLLIYRNSNRPSGVPDRFSGSKSDTSASLAITGLQAEDEADYYCQSYDSGLSGVVFGGGTKLTVL
# B7: ADI-67137 (protein)
# chain 1: EVQLVQSGAEVKKPGESLKISCKGSGYNFANYWIGWVRQMPGKGLEWMGIIYPSHSDIRYSPSFQGQVTISADKSISTAYLQWSSLKASDTAMYYCTRQIGHYGSGSEDYWGQGTLVTVSS
# chain 2: QSALTQPASVSGSPGQSITISCTGTSSDVGGYNHVSWYQQHPGKAPKLMIYDVSNRPSGVSNRFSGSKSGNTASLTISGLQAEDEADYYCSSYTSRNTLGEVFGTGTKVTVL
# B8: ADI-67138 (protein)
# chain 1: QLQLQESGPGLVKPSETLSLTCTVSGDSITSRNYYWGWVRQPPGKGLEWIGSIFYNVNTYYNPSLMSRITMSVDTSKNQFSLKLTSLTAADTAVYYCAVGGVRSLEWLLQFDYWGQGTLVTVSS
# chain 2: QSALTQPPSASGSPGQSVTISCTGTSSDVGYSNYVSWYQQHPGKAPKLMIFEVSERPSGVPDRFSGSKSGNTASLTVSGLQAEDEADYYCSSYAGSSSLVFGTGTKVTVL
# B9: ADI-67139 (protein)
# chain 1: QVQLQESGPGLVKPSQTLSLTCTVSGGSISSGSYYWSWIRQHPGKGLEWIGYIHYSGNTYYNPSLKSRISISVDTSKNHFSLKLNSVTAADTAVYYCARDSDYGEYFDSWGQGTLVTVSS
# chain 2: EIVLTQSPATLSLSPGERATLSCRASQSVSSYLAWYQQKAGQAPRLLIYDASNRATGIPARFSGSGSGTDFTLTISSLEPEDYAVYYCQQRYNWPPITFGQGTRLEIK
# B10: ADI-67140 (protein)
# chain 1: EVQLVETGGGLIQPGGSLRLSCAASGVIISNNYMSWVRQAPGKGLEWVSVIYSGGSTFYADSVKGRFTISRDNSKNTLYLQMNNLRAEDTAVYFCAREAYAFDIWGQGTMVTVSS
# chain 2: DIQLTQSPSFLSASVGDRVTITCRASQGISSYLAWYQQKPGKAPKLLIYGASTLQRGVPSRFSGSGSGTEFTLTITSLQPEDFATYYCQQLNSHPPAFGGGTKVEIK
# B11: ADI-67145 (protein)
# chain 1: QVQLVESGGGVVQPGRSLRLSCAASGFTFTTYAMHWVRQAPGKGLEWVALISYDGDNKYYPDSVKGRFTISRDNSKNTLYLQMNSLTTEDTAVYYCARAYGGSYYGAFDIWGQGTMVTVSS
# chain 2: DIVMTQSPDSLAVSLGERATINCKSSQSVLYNSNNKNYLAWYQQKPGQPPKLLIYWASTRESGVPDRFSGSGSGTDFTLTISSLQAEDVAVYYCQQYYSTPPYTFGQGTKVEIK
# B12: ADI-67183 (protein)
# chain 1: QLQLQESGPGLMKPSETLSLTCNVSGGSISSSDYYWGWIRQPPGKGLEWIGSYYYVGSTYYNPSLKSRVTISVDTSKSQFSLKLTSVTAADTAVYYCAVGGVRFFEWLLQFDYWGQGTLVTVSS
# chain 2: B8 chain 2 with Y31A, F51Y, V53L, S54T, E55K, E83A, D87H, V100I, T103G, V107L
# B13: ADI-67189 (protein)
# chain 1: QVQLVESGGGVVQPGRSLRLSCAASGFTFNNYGMHWVRQAPGKGLEWVALISYDGSLKHYADSVTGRFTISRDSSKSTLFLQMNSLRPEDTAVYYCARDYGDYAAFDSWGQGTLVTVSS
# chain 2: DIVMTQSPDSLAVSLGERATINCKSSQSVLYSSNNKNYLTWYQQKPGQPPKLLIYWASTRESGVSDRFSGSGSGTDFTLTISSLQAEDVAVYYCQQYYSTPLTFGGGTKVEIK
# B14: ADI-67218 (protein)
# chain 1: QVQLQQWGAGLLKPSETLSLTCAVYSGSFSGSSWSWIRQPPGKGLEWIGEINHSGSTNYNSSLKSRVTISIDTSKNQFSLRLNSVTAADTAVYYCARWDLLYPRDAFDIWGQGTMVTVSS
# chain 2: QSALTQPRSVSGSPGQSVTISCTGTSSDVGGYNYVSWYQQHPGKAPKLMTYDVSKRPSGVPDRFSGSKSGNTASLTIAGLQAEDEAEYHCCSYAGSYVVFGGGTKLTVL
# B15: ADI-67223 (protein)
# chain 1: QVQLVESGGGVVQPGRSLRLSCAASGFTFNTYGMHWVRQAPGKGLEWVAVISYDGSHIYYADSVKGRFTISRDSSKNTLYLQMNSLRAEDTAVYYCAKDYGDYGGMDVWGQGTTVTVSS
# chain 2: not shown
# B16: ADI-67225 (protein)
# chain 1: EVQLVESGGGLVKPGGSLRLSCAASGFTFSSYSINWVRQAPGKGLEWVSSISSRSNYIYYADSVKGRFTISRDNAKNSLYLQMHSLRAEDTAVYYCARDQDSGYDYGFSHYYYGLDVWGQGTTVTVSS
# chain 2: DIQMTQSPSSVSASVGDRVTITCRASQGISSWLAWYQQKPGKAPKLLIYAASSLQSGVPSRFSGSGSGTDFTLTISRLQPEDFATYYCQQGNSFPWTFGQGTKVEIK
# Target: SARS-CoV-2 Beta spike pseudovirus
# Assay: pseudovirus neutralization IC50; higher = weaker neutralization
# Conditions: system: VSV particle, 293T-ACE2 cells
# Description: (§1)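 Single-round reporter pseudovirus mixed with dilutions of yeast-made human IgG and put on ACE2-bearing cells; IC50 from the dose curve.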
row,Binder,pseudovirus neutralization IC50
1,B1,0.338 µg/mL
2,B2,0.641 µg/mL
3,B3,0.635 µg/mL
4,B4,> 1 µg/mL
5,B5,> 1 µg/mL
6,B6,> 1 µg/mL
7,B7,> 1 µg/mL
8,B8,0.001 µg/mL
9,B9,> 1 µg/mL
10,B10,> 1 µg/mL
11,B11,> 1 µg/mL
12,B12,0.0027 µg/mL
13,B13,> 1 µg/mL
14,B14,> 1 µg/mL
15,B15,> 1 µg/mL
16,B16,> 1 µg/mL

# Target: SARS-CoV-2 Delta spike pseudovirus
# Assay: as above
# Conditions: system: VSV particle, 293T-ACE2 cells
# Description: as §1
row,Binder,pseudovirus neutralization IC50
1,B1,0.227 µg/mL
2,B2,> 1 µg/mL
3,B3,0.0808 µg/mL
4,B4,> 1 µg/mL
5,B5,> 1 µg/mL
6,B6,> 1 µg/mL
7,B7,> 1 µg/mL
8,B8,0.003 µg/mL
9,B9,> 1 µg/mL
10,B10,0.015 µg/mL
11,B12,0.0008 µg/mL
12,B13,> 1 µg/mL
13,B14,0.057 µg/mL
14,B16,> 1 µg/mL

# Target: SARS-CoV-2 Omicron BA.1 spike pseudovirus
# Assay: as above
# Conditions: system: MLV particle, HeLa-ACE2 cells
# Description: as §1
row,Binder,pseudovirus neutralization IC50
1,B1,0.308 µg/mL
2,B2,0.138 µg/mL
3,B8,0.00228 µg/mL
4,B12,0.00303 µg/mL

# Target: SARS-CoV-2 index (Wuhan-Hu-1) spike pseudovirus
# Assay: as above
# Conditions: system: MLV particle, HeLa-ACE2 cells
# Description: as §1
row,Binder,pseudovirus neutralization IC50
1,B1,0.0625 µg/mL
2,B2,0.201 µg/mL
3,B3,0.00979 µg/mL
4,B4,0.183 µg/mL
5,B8,0.00451 µg/mL
6,B12,0.00722 µg/mL

# Same assay, conditions: system: VSV particle, 293T-ACE2 cells
row,Binder,pseudovirus neutralization IC50
1,B1,0.197 µg/mL
2,B2,0.502 µg/mL
3,B3,0.065 µg/mL
4,B4,0.0541 µg/mL
5,B5,> 1 µg/mL
6,B6,> 1 µg/mL
7,B8,0.0065 µg/mL
8,B9,0.212 µg/mL
9,B10,0.012 µg/mL
10,B11,> 1 µg/mL
11,B12,0.0029 µg/mL
12,B13,0.278 µg/mL
13,B14,0.0657 µg/mL
14,B15,> 1 µg/mL
15,B16,> 1 µg/mL

# Substitutions are numbered along the chain they refer to. Human monoclonal antibodies (heavy:light variable regions, translated from the printed DNA). IC50 against SARS-CoV-2 spike pseudoviruses, on VSV particles in 293T-ACE2 cells (24 h) or MLV particles in HeLa-ACE2 cells (72 h); lower = stronger; >1.0 µg/ml as printed. No active / inactive call per row; the paper counts an IC50 of 0.4 µg/ml or less on any variant as neutralizing. Only 98 of the paper's 459 antibodies have neutralization values; the two systems are not on one scale.
